In the supplement of paper PMC11383711:
The other results are listed elsewhere or left out. Binding of human antibodies (heavy:light variable regions, tested as scFv in one mRNA-display pool) to influenza hemagglutinin, with or without the stem antibody CR9114 bound first. Score = (mean enrichment − median) / interquartile range of that screen; higher = more enriched, 0 = typical non-binder. Active = above the paper's cut-off per screen: stems 28; unblocked H1 Solomon Islands 5, H1 Michigan 3, H3 5, H5 19, H7 2.85, both B 5; blocked 9, 7, H5 10, H7 10, B Phuket 10, B Lee 11.5. Scores are scaled within each screen and are no affinities; replicates correlate at about 0.6 to 0.9, and antibodies rare in the pool are noisier.

B1: 01.e.01 (protein)
chain 1: QVRLVESGGGVVQPGRSLRLSCAASAFTFSSYALHWVRQAPGKGLEWVTVISSNGRNKYYADSVKGRFTISRDNSKNTLYLQMNSLRVEDTAVYYCARGSSGYTYGYIDPLSNYYGMDVWGQGTTVTVSS
chain 2: DIVMTPRSVSLSVTPGEPASISCRSSQSLLHSNGYNYLDWYVQKPGQSPQLLIYLSSNRASGVPDRFSGSGSGTDFTLEISRVEAEDVAVYYCMQARQTPPTFGQGTKVEIK
B2: AG3-D06 (protein)
chain 1: QLQLQESGPGLVKPSETLSLTCSVSGGSISETIYYWGWIRQPPGKGLEWIGTIYSDGNTYYNPSLKSRVNMFVDTSDNQFSLKMKSLSAADTAVYYCARLRDGYKYYYGMDVWGQGTTVTVSS
chain 2: DIQMTQSPSSLSASVGDRVTIPCRASQTISTYLNWYQQRPGKAPKLLIYSASILERGVPSRFSGSGSGTDFTLTISSLQPEDFATYYCQWGSAISVTFGQGTKLEIK
B3: W85-2B03 (protein)
chain 1: QVQLVESGGGVVHPGRSLRLSCAASGFDFSDYAMHWVRQAPGKGLEWVALISSDGGNKYSADSMEGRFTISRDNYKNTVYLQMNRLRAEDTAVYYCATDFCSSSSCYLEYWGQGTLVTVSS
chain 2: QSALTQPASVSGSPGQSITISCTGTSTDVGGYNYVSWYQQHPGKAPKLMIYEVNNRPSGISDRFSASKSGNTASLTISGLQAEDEADYYCSSYTRRSTWVFGGGTKVAVL
B4: AG2-B02 (protein)
chain 1: VQLVQSGAEVKKPGESLKISCRASGYNFDRHWIGWVRQTPGKGLEWMAIIYPHDSGHRYSPAFEGQVAISADKSTSTAYLQWSSLKASDTATYYCAKLPSKYYYDNSGPFDVWGQGTLVTVSS
chain 2: AIQLTQSPSSLSASVGDRVTITCRASESVITALAWYQQRPGRAPRLLISDASTLQNGVPSRFSGSGSGTDFALTITSLQPEDFATYYCQQYETGPTFGQGTRLEIK
B5: C05 (protein)
chain 1: QVQLQESGGGLVQPGESLRLSCVGSGSSFGESTLSYYAVSWVRQAPGKGLEWLSIINAGGGDIDYADSVEGRFTISRDNSKETLYLQMTNLRVEDTGVYYCAKHMSMQQVVSAGWERADLVGDAFDVWGQGTLVTVS
chain 2: DIQLTQSPSSLSASVGDRVTLTCQASQDIRKFLNWYQQKPGKGPKLLIYDASNLQRGVPSRFSGVDLGQISLSSSVACSLKDVGTYYCQQYDGLPFTFGGGTKLEIK
B6: antibody 3D03 (protein)
chain 1: EVQLVQSEAEVKKPGESLKISCKGSGYSFANYWIAWVRQMPGQDLEWMGVIYPGDSDTKYSPSFQGQVTISADKSISTAYLQWNSLKASDTAMYYCARAPPHEGRYYYYYYYMDVWGKGTTVTVSS
chain 2: AIRMTQSPSSLSASVGDRVTITCRASQDINSFLAWYQQKPGQAPKVLLYGASRLQSGVPSRFSGSGSGADYTLTISSLQPEDFATYYCQQYYHIPRFGQGTKVEIK
B7: antibody 3G04 (protein)
chain 1: EVQLVESGGGLVKPGGSLRLSCAASGFILSDYYMSWIRQAPGKGLEWISYISNSGSSIYNADSVKGRLTISRDSAKNSVFLELNSLRAEDTAVYYCARFPRFGSGSPYQNDAFDIWGQGTMVTVSS
chain 2: DIQMTQSPSSLSASVGDRVSITCRAGRNINNYLNWYQQPPGKAPKLLIFSAVTLQSGVPSRFSGSGSGTEFSLTINSLQPEDSATYYCQQTYGNPTFGQGTKVEIK
B8: H1N1-300-16-IgG-2E02- (protein)
chain 1: QVQLVQSGAEVKKPGSSVKISCEASGNTFTKYAISWVRQAPGQGLEWMGGMNPNFGTTNYAQKFQGRLTITADERTTTAYMDLSSLRPDDTAVYYCARAKLLGEVSLGPPEFWGQGTLVTVSS
chain 2: DIQMTQSPSSLSASIGDRVTITCQASQDIKKYLNWYQQKPGKAPKLLIYDASSLQTGVPSRFSGSGSGTEFTFTISSLQPEDIATYYCQQYHNLIPMDTFGQGTKVEIK
B9: AG10-3C01 (protein)
chain 1: VQLLESGGDLIQPGGSLRLSCAASGFAFGRYAMGWVRQAPGKGLEWVSSISGGFGVFGVTYYADSVKGRFTISRDNSKNTLYLQMNSLRAEDTAIYYCVKDFTPPGTWGWRPGYCDYWGQGTLVTVSS
chain 2: EIVLTQSPGTLSLSPGERATLSCRASQSVTSNSLAWYQQRPGQAPRLLIYGASSRATGIPDRFSGSGSGTDFTLTITRMDPEDFAVYHCHHYGSSTGTFGQGTKVEIK
B10: 051-09-4C02 (protein)
chain 1: QVQLVESGGGLVTPGGSLRLSCVASGFSFGDFYMGWIRQAPGKGLQWLSHISPSGGTIYYSDSVKGRFSISRDNAKNSVHLEMNSLRADDTAVYYCARAGVAVLTFDNRGWRFFDPWGQGTLVTVSS
chain 2: EIVLTQSPATLSLSPGERATLSCRASQSINDYLAWYQQKPGQAPRLVIHDASNRATGIPARFSGSGSETDFTLTISSLEPEDFAVYYCQQRSNWPPGVTFGQGTRLEIK
B11: W85-1E04 (protein)
chain 1: EVQLVESGGGVVQPGGSLRLSCAASGFTFGDYAMHWVRQPPGKGLEWVSLITGDGGSTKYADSVKGRFTISRDNSKNSLSLEMNSLRTEDSALYYCAKDIVSVVAAVDYWGQGARVTVSS
chain 2: QSALTQPASVSGSPGQSITISCTGTSSDVGCYNYVSWYQQHPGKAPKLMIYDVNNRPSGVSDRFSGSKSGNTASLTISGLQAEDEADFYCSSYTVSSTLVFGSGTKVTVL
B12: C1-C02 (protein)
chain 1: VQLVESGGGLVKPGGSLRISCAASGFSFSNAWMNWVRQAPGRGLEWVGRIKSKTDGGITDYGAPVKGRFSISRDDSKKTLYLQMNSLKTEDTAVYYCATGGGSASGMYYYNGLDVWGQGTTVTVSS
chain 2: DIVMTQTPLSLSVTPGQPASISCKSSQTLLHGDEKTYLYWYLQKPGQSPQILIYEVSNRFPDVPDRFSGSGSGTDFTLKISRVEAEDVGVYYCMQSIQLPYTFGQGTKVEIK

Key:
Assay in all cases: mRNA display binding score; higher = more enriched on the antigen
[1] = target: Influenza A H1N1 A/Michigan/45/2015 hemagglutinin ectodomain
Protocol: (§1)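 A pool of natively paired antibodies, displayed as scFv on mRNA, was selected once on antigen-coated beads and sequenced before and after; two replicates.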

[2] = target: Influenza A H1N1 A/Solomon Islands/3/2006 hemagglutinin ectodomain
Protocol: as §1

[3] = target: Influenza A H3N2 A/Singapore/INFIMH-16-0019/2016 hemagglutinin ectodomain; details: antigen blocked with: nothing
Protocol: as §1

[4] = target: Influenza A H5N1 A/Qinghai/1A/2005 hemagglutinin ectodomain
Protocol: as §1

[5] = target: Influenza A H7N9 A/Shanghai/2/2013 hemagglutinin ectodomain
Protocol: as §1

[6] = target: Influenza B/Lee/1940 hemagglutinin ectodomain
Protocol: as §1

[7] = target: Influenza B/Phuket/3073/2013 hemagglutinin ectodomain
Protocol: as §1

[8] = antigen blocked with: 2 µM CR9114 IgG

| Binder | mRNA display binding score [1, 8] | mRNA display binding score ([1]; antigen blocked with: nothing) | mRNA display binding score [2, 8] | mRNA display binding score ([2]; antigen blocked with: nothing) | mRNA display binding score [3] | mRNA display binding score [4, 8] | mRNA display binding score ([4]; antigen blocked with: nothing) | mRNA display binding score [5, 8] | mRNA display binding score ([5]; antigen blocked with: nothing) | mRNA display binding score [6, 8] | mRNA display binding score ([6]; antigen blocked with: nothing) | mRNA display binding score [7, 8] | mRNA display binding score ([7]; antigen blocked with: nothing) |
| --- | --- | --- | --- | --- | --- | --- | --- | --- | --- | --- | --- | --- | --- |
| B1 | inactive: -0.032 | inactive: 0.843 | inactive: 0.487 | inactive: 0.553 | inactive: 0.478 | inactive: 0.0906 | inactive: 0.112 | inactive: 0.384 | inactive: 1.33 | inactive: -0.482 | inactive: 0.0872 | inactive: -0.11 | inactive: 0.0287 |
| B2 | inactive: 0.39 | inactive: 0.327 | inactive: -0.03 | inactive: -0.14 | inactive: -0.495 | inactive: 3.39 | inactive: 4.89 | inactive: 0.319 | inactive: 0.661 | inactive: -0.377 | inactive: -0.172 | active: 35.6 | active: 23 |
| B3 | inactive: 0.275 | inactive: -0.36 | inactive: -0.893 | inactive: -0.151 | inactive: -0.518 | inactive: -0.07 | inactive: -0.633 | inactive: -0.54 | inactive: -0.504 | inactive: 0.475 | inactive: -0.274 | inactive: -0.532 | inactive: -0.14 |
| B4 | inactive: 4.18 | inactive: -0.172 | active: 270 | active: 233 | inactive: -0.0931 | inactive: 3.27 | inactive: 2.18 | inactive: 2.72 | inactive: 0.096 | inactive: 0.0646 | inactive: 0.544 | active: 10.5 | active: 8.63 |
| B5 | inactive: 5.03 | inactive: 1.74 | inactive: -0.376 | inactive: 1 | inactive: 0 | inactive: 0.559 | inactive: 0.535 | inactive: 3.64 | inactive: 1.45 | inactive: 2.66 | inactive: 1.14 | inactive: 0.785 | inactive: 1.64 |
| B6 | inactive: 0.0677 | inactive: -0.352 | inactive: 0.251 | inactive: 0.287 | inactive: -0.235 | inactive: -0.739 | inactive: -0.242 | inactive: 0.15 | inactive: -0.484 | inactive: 0.449 | inactive: 0.469 | inactive: -0.107 | inactive: 0.3 |
| B7 | inactive: 1.21 | inactive: 0.44 | inactive: -0.215 | inactive: 0.839 | inactive: 0.624 | inactive: 1.52 | inactive: 9.22 | inactive: 0.771 | inactive: 0.119 | inactive: 1.34 | active: 136 | active: 12.7 | active: 73.1 |
| B8 | inactive: 0.746 | inactive: -0.514 | inactive: 0.478 | inactive: 0.0102 | inactive: -0.329 | inactive: -0.381 | inactive: -0.367 | inactive: -0.0717 | inactive: -0.726 | inactive: 1.11 | inactive: 0.226 | inactive: 0.268 | inactive: 0.0943 |
| B9 | inactive: 0.637 | inactive: -0.123 | inactive: 0.361 | inactive: 0.119 | inactive: -0.368 | inactive: 0.692 | inactive: 0.537 | inactive: 5.85 | inactive: 0.426 | inactive: 5.39 | inactive: 3.15 | inactive: 0.323 | inactive: 0.427 |
| B10 | inactive: 0.028 | inactive: -0.729 | inactive: -0.872 | inactive: -0.473 | inactive: 0.466 | inactive: -0.504 | inactive: -0.488 | inactive: 0.474 | inactive: -0.677 | inactive: 0.0826 | inactive: -0.367 | inactive: -0.543 | inactive: -0.366 |
| B11 | inactive: -0.0745 | inactive: 1.1 | inactive: -0.297 | inactive: 1.04 | inactive: -0.37 | inactive: 0.00442 | inactive: 0.525 | inactive: -0.816 | inactive: -0.244 | inactive: 1.91 | inactive: 0.109 | inactive: -0.229 | inactive: -0.00737 |
| B12 | inactive: 0.76 | inactive: -0.915 | inactive: -0.808 | inactive: -0.397 | inactive: -0.51 | inactive: 0.777 | inactive: -0.385 | inactive: 0.502 | inactive: -0.31 | inactive: -0.323 | inactive: -0.25 | inactive: -0.351 | inactive: -0.312 |
